Data published in the supplement of paper PMC4166925.
± gives the standard deviation of the averaged measurements. Whole data set: some 33,000 sequences, median “E-score (dimensionless, -0.5 to 0.5)” near -0.046, cut for the highest 2% near 0.36. This is one part of the list.

What follows are sequences tested on T1, SpTbr T-box DNA-binding domain (GST fusion) (assay: PBM E-score of 8-mer (E-score (dimensionless, -0.5 to 0.5)); Tbr is Tbrain of the sea star Patiria miniata (Pm) or the sea urchin Strongylocentrotus purpuratus (Sp); higher = stronger binding preference; most listed sequences are background and not binding sites). Settings: the construct has about 5 more residues each side.
T1 sequence: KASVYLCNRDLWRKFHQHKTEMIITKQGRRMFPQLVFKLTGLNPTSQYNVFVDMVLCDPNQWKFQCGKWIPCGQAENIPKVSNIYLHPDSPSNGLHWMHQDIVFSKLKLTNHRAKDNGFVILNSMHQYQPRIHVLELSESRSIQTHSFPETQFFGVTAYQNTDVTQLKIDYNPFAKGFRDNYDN
Method in brief: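 Primer extension turned Universal Agilent oligonucleotide arrays double-stranded. They were incubated with 200 nM protein in PBS (pH 7.5); the protein was a GST-fused Tbr T-box DNA-binding domain expressed in BL21 E. coli at 20 °C and purified on glutathione. Every ungapped 8-mer was scored from the scanned, quantified probe intensities, and the Universal PBM Analysis Suite gave each an enrichment E-score averaged over duplicate arrays.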
In the case of ATAGCTTC, the “PBM E-score of 8-mer” value is reported as -0.232 ± 0.042. With GATACTAC the “PBM E-score of 8-mer” value was -0.138 ± 0.027. TTACGAAA was tested, and the “PBM E-score of 8-mer” value was -0.128 ± 0.065. In the case of AACTATTG, the “PBM E-score of 8-mer” value is reported as 0.00025 ± 0.014. For AAGCCATT, the “PBM E-score of 8-mer” value was -0.117 ± 0.049. With AGTAACCC the “PBM E-score of 8-mer” value was -0.157 ± 0.0023. For CCCAAAGC, the “PBM E-score of 8-mer” value was -0.202 ± 0.035. CCTCTCCG was tested, and the “PBM E-score of 8-mer” value was -0.0582 ± 0.13. With AGTGACAA the “PBM E-score of 8-mer” value was 0.397 ± 0.014. With AGTAGGCA the “PBM E-score of 8-mer” value was -0.0551 ± 0.025. For ACGACTCG, the “PBM E-score of 8-mer” value was 0.232 ± 0.016. With TCACGACA the “PBM E-score of 8-mer” value was 0.272 ± 0.02. For AGATGAGG, the “PBM E-score of 8-mer” value was -0.224 ± 0.021. For AGGAGTGC, the “PBM E-score of 8-mer” value was 0.0744 ± 0.064. GAAACCTC was tested, and the “PBM E-score of 8-mer” value was -0.135 ± 0.14. With CAGGTAAC the “PBM E-score of 8-mer” value was 0.1535 ± 0.0014. CGTATCTA was tested, and the “PBM E-score of 8-mer” value was -0.232 ± 0.004. ACAGAAAC was tested, and the “PBM E-score of 8-mer” value was 0.0632 ± 0.015. In the case of CCCTCAAC, the “PBM E-score of 8-mer” value is reported as -0.136 ± 0.012. With CGATATCG the “PBM E-score of 8-mer” value was 0.222 ± 0.029. With ATCTGACA the “PBM E-score of 8-mer” value was 0.167 ± 0.018. In the case of AGCTCTCG, the “PBM E-score of 8-mer” value is reported as -0.074 ± 0.02. With CCATGTAG the “PBM E-score of 8-mer” value was -0.2268 ± 0.0017. In the case of AATGCCCT, the “PBM E-score of 8-mer” value is reported as -0.179 ± 0.06. In the case of AAGAAAGA, the “PBM E-score of 8-mer” value is reported as -0.235 ± 0.0079. In the case of CTAGAAAC, the “PBM E-score of 8-mer” value is reported as -0.109 ± 0.031. GGTGCCGA was tested, and the “PBM E-score of 8-mer” value was 0.36 ± 0.0091. In the case of ACGGTCGG, the “PBM E-score of 8-mer” value is reported as -0.16 ± 0.017. In the case of TGATCGCA, the “PBM E-score of 8-mer” value is reported as 0.322 ± 0.025. In the case of GCAGATCC, the “PBM E-score of 8-mer” value is reported as -0.0736 ± 0.062. With CCACATTC the “PBM E-score of 8-mer” value was 0.14 ± 0.06. With AGGGGGCC the “PBM E-score of 8-mer” value was -0.217 ± 0.058. In the case of CATTAGCA, the “PBM E-score of 8-mer” value is reported as 0.274 ± 0.0072. For TGACCTAA, the “PBM E-score of 8-mer” value was -0.177 ± 0.015. In the case of AGGTGACT, the “PBM E-score of 8-mer” value is reported as 0.276 ± 0.001. CTTTCCGC was tested, and the “PBM E-score of 8-mer” value was 0.0156 ± 0.018. With ATCCTGTG the “PBM E-score of 8-mer” value was 0.00404 ± 0.015. GATAGACA was tested, and the “PBM E-score of 8-mer” value was -0.105 ± 0.065. In the case of CCAGTCGG, the “PBM E-score of 8-mer” value is reported as -0.165 ± 0.051. In the case of ATGGGCGG, the “PBM E-score of 8-mer” value is reported as -0.0157 ± 0.07. In the case of AATAATTA, the “PBM E-score of 8-mer” value is reported as -0.0779 ± 0.088. In the case of AAGTATGG, the “PBM E-score of 8-mer” value is reported as -0.286 ± 0.029. For ATTAGTAC, the “PBM E-score of 8-mer” value was -0.00749 ± 0.045. CTAAGATC was tested, and the “PBM E-score of 8-mer” value was -0.119 ± 0.044. CCCAATAG was tested, and the “PBM E-score of 8-mer” value was 0.0509 ± 0.13. In the case of AGCGTTTC, the “PBM E-score of 8-mer” value is reported as -0.126 ± 0.022. In the case of GCGTCCGA, the “PBM E-score of 8-mer” value is reported as -0.048 ± 0.026. With GGTAGGTA the “PBM E-score of 8-mer” value was -0.175 ± 0.033. In the case of AGCCTTTG, the “PBM E-score of 8-mer” value is reported as -0.222 ± 0.051. AACGGAAT was tested, and the “PBM E-score of 8-mer” value was 0.0951 ± 0.12. With ACAGCCGA the “PBM E-score of 8-mer” value was 0.0547 ± 0.034. CGAGCACA was tested, and the “PBM E-score of 8-mer” value was -0.0373 ± 0.063. GAATGTAA was tested, and the “PBM E-score of 8-mer” value was -0.163 ± 0.0047. In the case of CGCGCTAA, the “PBM E-score of 8-mer” value is reported as 0.338 ± 0.0063. ATTCCAAC was tested, and the “PBM E-score of 8-mer” value was -0.193 ± 0.04. In the case of GCCCGGCC, the “PBM E-score of 8-mer” value is reported as -0.158 ± 0.019. For AAACATTC, the “PBM E-score of 8-mer” value was -0.0068 ± 0.0056. For GGCGGATA, the “PBM E-score of 8-mer” value was -0.294 ± 0.015. With AGATTAGG the “PBM E-score of 8-mer” value was -0.171 ± 0.017. In the case of GCCAACCA, the “PBM E-score of 8-mer” value is reported as 0.0609 ± 0.021. With CGTGCGTA the “PBM E-score of 8-mer” value was -0.00609 ± 0.055. For AGCCGGAA, the “PBM E-score of 8-mer” value was -0.233 ± 0.011. In the case of ACGTAGCA, the “PBM E-score of 8-mer” value is reported as 0.0591 ± 0.083. For AAGGTTAA, the “PBM E-score of 8-mer” value was -0.128 ± 0.084. CGACGACC was tested, and the “PBM E-score of 8-mer” value was 0.138 ± 0.018. With CGCCTTCC the “PBM E-score of 8-mer” value was 0.033 ± 0.0063. GACAACTC was tested, and the “PBM E-score of 8-mer” value was 0.252 ± 0.019. ACCCCCTC was tested, and the “PBM E-score of 8-mer” value was -0.0672 ± 0.037. CCATGGTC was tested, and the “PBM E-score of 8-mer” value was -0.0694 ± 0.056. With ATGCAGAG the “PBM E-score of 8-mer” value was -0.18 ± 0.023. In the case of ATGGCGAA, the “PBM E-score of 8-mer” value is reported as 0.0787 ± 0.01. GGCTGAGA was tested, and the “PBM E-score of 8-mer” value was 0.0781 ± 0.035. AAAAACAA was tested, and the “PBM E-score of 8-mer” value was -0.165 ± 0.049. CGTCCTCA was tested, and the “PBM E-score of 8-mer” value was 0.0207 ± 0.0083. GTACCGAA was tested, and the “PBM E-score of 8-mer” value was -0.254 ± 0.0068. ACGAATTC was tested, and the “PBM E-score of 8-mer” value was -0.0844 ± 0.07. For CGCACCAA, the “PBM E-score of 8-mer” value was 0.2705 ± 0.0014. For GGGATCGA, the “PBM E-score of 8-mer” value was -0.161 ± 0.0078. With ACCGTACC the “PBM E-score of 8-mer” value was -0.0313 ± 0.04. For CAGCCCCC, the “PBM E-score of 8-mer” value was -0.0955 ± 0.021. With CTGGGAGA the “PBM E-score of 8-mer” value was -0.0994 ± 0.031. With AGCTGGGG the “PBM E-score of 8-mer” value was -0.224 ± 0.038. With CCCCCGGC the “PBM E-score of 8-mer” value was -0.134 ± 0.017. With ATATGGAG the “PBM E-score of 8-mer” value was -0.204 ± 0.01. With GATCCCGA the “PBM E-score of 8-mer” value was -0.164 ± 0.0081. For GTCCATCA, the “PBM E-score of 8-mer” value was -0.219 ± 0.0084. GTAAGGCA was tested, and the “PBM E-score of 8-mer” value was -0.2643 ± 0.0015. With AGGTCCCG the “PBM E-score of 8-mer” value was -0.195 ± 0.016. With CACGGCTG the “PBM E-score of 8-mer” value was 0.158 ± 0.0055. With GATCGGGA the “PBM E-score of 8-mer” value was -0.172 ± 0.013. CTAAATAG was tested, and the “PBM E-score of 8-mer” value was -0.0998 ± 0.07. In the case of AGTCAATG, the “PBM E-score of 8-mer” value is reported as -0.173 ± 0.12. AGGGGAAG was tested, and the “PBM E-score of 8-mer” value was -0.0777 ± 0.06. With CCTGTGTC the “PBM E-score of 8-mer” value was 0.0515 ± 0.0033. For CGTAGTAC, the “PBM E-score of 8-mer” value was -0.287 ± 0.056. CCGCTCAA was tested, and the “PBM E-score of 8-mer” value was -0.188 ± 0.093. For GCCTCCGA, the “PBM E-score of 8-mer” value was -0.0614 ± 0.071. With ATCAGCGC the “PBM E-score of 8-mer” value was 0.131 ± 0.014. For AGACACTG, the “PBM E-score of 8-mer” value was -0.0737 ± 0.012. For CTGCATCA, the “PBM E-score of 8-mer” value was -0.1 ± 0.036. AAAGGGGT was tested, and the “PBM E-score of 8-mer” value was 0.0258 ± 0.013. For CCTACTTC, the “PBM E-score of 8-mer” value was -0.172 ± 0.055. With ATATACAC the “PBM E-score of 8-mer” value was 0.00434 ± 0.022. For AACAACGG, the “PBM E-score of 8-mer” value was -0.0918 ± 0.00098. For CAAGACTC, the “PBM E-score of 8-mer” value was -0.0934 ± 0.015. For CCGGTCAA, the “PBM E-score of 8-mer” value was -0.0653 ± 0.027. For CGGCACCC, the “PBM E-score of 8-mer” value was 0.254 ± 0.038. For CATCGCGA, the “PBM E-score of 8-mer” value was 0.197 ± 0.0055. In the case of CGGTCAAA, the “PBM E-score of 8-mer” value is reported as -0.133 ± 0.058.
